Measured values reported in article PMC9282853.
Changes are numbered by the printed parent chain. No constants are given. Whether binding was seen depends on the method and setting. Binding seen in cells or lysates may run through a third protein. Some entries that bind do so weakly or less than the wild type. For some of these results: Where a sequence is shown, tags or fusion partners need not be part of it.

Legend:
[1] = biological target: T1, Samd14, endogenous in lineage-depleted mouse spleen cells (mouse (endogenous in spleen cells)) (UniProt Q8K070); experiment: co-IP; endogenous Samd14 precipitated with anti-Samd14 antibody or rabbit IgG control from Lin- WT spleen lysates of PHZ-treated mice; also PBS control mice, sorted CD71+Ter119- and CD71+Ter119+ cells, and +/- SCF (10 ng/ml, 5 min); Western blot for Capzβ
T1 sequence: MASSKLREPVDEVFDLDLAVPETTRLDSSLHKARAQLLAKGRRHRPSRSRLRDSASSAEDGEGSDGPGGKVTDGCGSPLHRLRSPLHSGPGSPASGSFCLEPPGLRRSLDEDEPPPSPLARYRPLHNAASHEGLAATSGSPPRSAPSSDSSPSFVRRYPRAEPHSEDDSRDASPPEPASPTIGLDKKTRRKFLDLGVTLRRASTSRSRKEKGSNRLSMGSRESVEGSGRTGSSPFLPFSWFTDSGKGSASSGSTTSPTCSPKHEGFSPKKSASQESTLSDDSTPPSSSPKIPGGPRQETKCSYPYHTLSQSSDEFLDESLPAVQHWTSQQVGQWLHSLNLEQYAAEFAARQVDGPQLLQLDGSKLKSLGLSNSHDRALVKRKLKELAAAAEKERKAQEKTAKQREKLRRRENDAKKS

[2] = biological target: T2, HA-tagged Samd14-∆170–180 (mouse) (UniProt Q8K070); experiment: co-IP; anti-HA agarose beads on lysates (1% NP-40 lysis buffer) of GFP-sorted G1E-ΔEnh cells expressing HA-tagged Samd14 constructs or empty vector; Western blot for Capzβ, Capzα1, Capzα2
T2 sequence: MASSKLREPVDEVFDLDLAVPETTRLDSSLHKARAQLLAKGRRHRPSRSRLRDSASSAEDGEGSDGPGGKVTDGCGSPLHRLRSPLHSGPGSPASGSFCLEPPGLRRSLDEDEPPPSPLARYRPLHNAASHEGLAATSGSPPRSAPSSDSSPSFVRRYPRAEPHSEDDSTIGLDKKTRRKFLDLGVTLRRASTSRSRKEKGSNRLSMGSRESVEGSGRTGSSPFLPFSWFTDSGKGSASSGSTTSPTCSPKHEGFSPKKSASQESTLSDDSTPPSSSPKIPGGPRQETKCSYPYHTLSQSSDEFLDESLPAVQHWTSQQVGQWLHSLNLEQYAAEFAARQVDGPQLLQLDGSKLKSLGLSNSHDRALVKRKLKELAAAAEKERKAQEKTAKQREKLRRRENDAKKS

[3] = biological target: T3, HA-tagged full-length Samd14 (sterile alpha motif domain-containing protein 14) (mouse) (UniProt Q8K070); experiment: as above
T3 sequence: T1 sequence

[4] = biological target: T4, HA-tagged Samd14-R43/45 A (mouse) (UniProt Q8K070); experiment: as above
T4 sequence: T1 sequence with R43A, R45A

[5] = biological target: T5, HA-tagged Samd14-∆272–295 (mouse) (UniProt Q8K070); experiment: as above
T5 sequence: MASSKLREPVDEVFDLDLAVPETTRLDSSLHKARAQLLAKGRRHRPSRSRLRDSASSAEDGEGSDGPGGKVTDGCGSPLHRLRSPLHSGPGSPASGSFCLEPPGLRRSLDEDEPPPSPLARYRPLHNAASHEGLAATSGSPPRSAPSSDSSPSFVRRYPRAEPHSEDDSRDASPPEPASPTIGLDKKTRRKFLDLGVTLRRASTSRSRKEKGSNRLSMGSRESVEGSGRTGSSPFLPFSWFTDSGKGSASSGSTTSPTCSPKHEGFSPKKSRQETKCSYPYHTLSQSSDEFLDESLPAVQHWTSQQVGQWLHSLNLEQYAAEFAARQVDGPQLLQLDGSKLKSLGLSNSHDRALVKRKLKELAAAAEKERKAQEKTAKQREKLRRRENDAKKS

[6] = biological target: T6, HA-tagged Samd14-Ckip1 CPI chimeric protein (mouse | not stated) (UniProt Q8K070+Q9JIY0); experiment: as above
T6 sequence: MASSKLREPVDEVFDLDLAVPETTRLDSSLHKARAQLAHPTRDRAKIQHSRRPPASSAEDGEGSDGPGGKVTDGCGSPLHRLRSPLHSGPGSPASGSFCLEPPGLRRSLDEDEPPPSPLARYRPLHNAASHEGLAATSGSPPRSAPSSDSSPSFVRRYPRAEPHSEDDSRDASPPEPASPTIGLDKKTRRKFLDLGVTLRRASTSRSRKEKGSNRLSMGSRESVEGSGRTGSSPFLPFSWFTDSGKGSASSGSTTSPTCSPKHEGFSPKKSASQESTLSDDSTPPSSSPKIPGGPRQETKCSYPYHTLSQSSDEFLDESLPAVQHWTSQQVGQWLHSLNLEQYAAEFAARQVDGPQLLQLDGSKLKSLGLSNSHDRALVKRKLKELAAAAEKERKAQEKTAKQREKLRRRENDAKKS

[7] = biological target: T7, HA-tagged Samd14-∆38–54 (Samd14 lacking the capping protein binding domain) (mouse) (UniProt Q8K070); experiment: as above
T7 sequence: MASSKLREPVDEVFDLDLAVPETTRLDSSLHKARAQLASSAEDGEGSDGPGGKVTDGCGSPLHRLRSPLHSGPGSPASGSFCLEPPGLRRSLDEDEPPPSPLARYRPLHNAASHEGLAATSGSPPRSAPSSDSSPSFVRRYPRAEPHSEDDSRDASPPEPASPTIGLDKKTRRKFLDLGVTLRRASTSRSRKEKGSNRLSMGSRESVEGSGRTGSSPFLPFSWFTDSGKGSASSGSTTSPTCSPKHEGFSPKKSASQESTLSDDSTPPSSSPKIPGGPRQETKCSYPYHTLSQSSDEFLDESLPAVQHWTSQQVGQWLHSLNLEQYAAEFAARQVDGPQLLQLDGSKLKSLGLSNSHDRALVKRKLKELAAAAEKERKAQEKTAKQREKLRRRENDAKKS

[8] = biological target: T8, HA-tagged Samd14-∆114–124 (mouse) (UniProt Q8K070); experiment: as above
T8 sequence: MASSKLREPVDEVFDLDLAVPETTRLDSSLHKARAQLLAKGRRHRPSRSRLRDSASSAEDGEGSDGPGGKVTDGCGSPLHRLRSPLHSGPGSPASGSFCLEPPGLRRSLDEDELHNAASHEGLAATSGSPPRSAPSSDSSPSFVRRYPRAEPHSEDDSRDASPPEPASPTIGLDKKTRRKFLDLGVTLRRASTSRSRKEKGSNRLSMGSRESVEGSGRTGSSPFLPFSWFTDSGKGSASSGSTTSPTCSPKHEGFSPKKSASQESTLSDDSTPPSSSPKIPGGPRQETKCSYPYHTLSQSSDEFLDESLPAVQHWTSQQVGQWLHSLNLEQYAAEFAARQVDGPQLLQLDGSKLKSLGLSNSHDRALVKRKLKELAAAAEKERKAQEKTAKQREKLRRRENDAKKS

[9] = biological target: T9, Samd14, endogenous in wild type G1E cells (mouse (endogenous in G1E)) (UniProt Q8K070); experiment: co-IP; endogenous Samd14 precipitated from WT G1E cell lysate (1% NP-40 lysis buffer) with anti-Samd14 antibody or rabbit IgG control and Protein A beads; Western blot
T9 sequence: T1 sequence

| binding [1] | binding [2] | binding [3] | binding [4] | binding [5] | binding [6] | binding [7] | binding [8] | binding [9] | Substance |
| --- | --- | --- | --- | --- | --- | --- | --- | --- | --- |
| binds | – | – | – | – | – | – | – | – | Capzβ, endogenous in lineage-depleted mouse spleen cells (from UniProt P47757 1-277) |
| – | binds | binds | binds | binds | no binding | no binding | binds | binds | Capzβ (F-actin capping protein β subunit), endogenous in G1E cells (from UniProt P47757 1-277) |
| – | binds | binds | binds | binds | no binding | no binding | binds | – | Capzα2 (F-actin capping protein α2 subunit), endogenous in G1E cells (from UniProt P47754 1-286) |
